Source: PubChem BioAssay AID686979 (National Center for Advancing Translational Sciences (NCATS), 2013)
Among all 420,000 compounds or so, about 50,000 (12%) were called active. This list was built around the results that the source calls inconclusive (neither active nor inactive); the mix of calls is not that of the screen. The call rests on the fitted dose curve; in most records, active means well fitted inhibition curve with a large enough effect; inconclusive means small, poorly fitted or top-dose-only effect; inactive means flat fitted curve, though single readings scatter. Potencies of inconclusive entries are left out as doubtful fits.

Assay: qHTS for Inhibitors of human tyrosyl-DNA phosphodiesterase 1 (TDP1): qHTS in cells in presence of CPT; further: nearly all actives have a fitted effect of over 55% in size
Settings: chicken DT40 Tdp1-/-;hTDP1 cells + 20 nM CPT, ATP luminescence, 48 h; series mostly up to 46.2 µM
Outline: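 Chicken DT40 Tdp1-/- cells complemented with human TDP1, 400 cells/well, exposed to compounds plus 20 nM camptothecin for at least 48 h at 37 C; viability read as ATP content by CellTiter-Glo luminescence.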
Potency means the concentration at half of the fitted maximal effect; tags describe the fitted curve by direction and shape.

SMILES	Potency
O=C(Nc1ccccc1CC[N+](=O)[O-])N1CCN(c2ccccc2)CC1	inconclusive [inhibitor, single point]
Cc1ccc(C)c(Nc2ncnc3onc(C)c23)c1	inconclusive [inhibitor, single point]
Nc1c(C(=O)c2cccs2)sc2nsc(SCCN3CCCCC3)c12	inconclusive [inhibitor, single point]
Cc1ccc(-c2noc(CSc3nnc(-c4ccncc4)n3-c3ccc(F)cc3)n2)cc1	active: 11.6 µM
N#Cc1c2c(c(NCCCN3CCOCC3)n3c1nc1ccccc13)CCC2	inconclusive [inhibitor, single point]
CCN(C(=O)c1cc2c(=O)oc3ccc(C)cc3c2s1)c1cc(OC)ccc1OC	inconclusive [inhibitor, single point]
CCN(c1ccccc1)c1cc2ccccc2c(=O)[nH]1	inconclusive [inhibitor, single point]
CCn1ccnc1CN(C)C(=O)c1cc(COc2ccc(OC)c3ccccc23)on1	active: 14.6 µM
c1ccn2cc(-c3ccc4c(c3)OCCO4)nc2c1	active: 14.6 µM
Cc1ccc(NC(=O)COC(=O)c2ccccc2OCC(=O)Nc2ccc(Br)cc2)c(C)c1	inconclusive [inhibitor, single point]
CCN(C(=O)CN1C(=O)CN(C)C1=O)c1cccc2ccccc12	active: 11.6 µM
O=C(CC1SC(=Nc2ccccc2)N(CCc2c[nH]c3ccccc23)C1=O)Nc1ccccc1F (centres undefined)	inconclusive [inhibitor, single point]
CCc1nc2c(OCC(=O)c3ccc(Cl)cc3Cl)cccn2c1N(C)C(=O)COc1ccccc1	inconclusive [inhibitor, single point]
Cc1cc(=O)c2c(o1)C(=O)c1occc1C2=O	active: 18.4 µM
Cc1cccnc1NC(=O)c1cccc(S(=O)(=O)N2CCN(c3ccccc3)CC2)c1	inconclusive [inhibitor, partial curve]
CCOC(=O)C1=C(COC(=O)/C=C/c2ccc(SC)cc2)NC(=O)NC1C (centres undefined)	inactive
CC(C)(C)NC(=O)CSc1nc2ccc(NC(=O)CSc3nnnn3Cc3ccccc3)cc2s1	active: 8.2 µM
COc1ccc(-c2c(C#Cc3ccsc3)c3cc(-c4ccc(C(N)=O)cc4)ccc3n2C)cc1	active: 23.1 µM
CCN(CC)c1ccc(CN(C(=O)Cc2coc3ccc(C)cc23)C2CCS(=O)(=O)C2)cc1 (centres undefined)	inconclusive [inhibitor, single point]
CCC(CC)NC(=O)/C=C/c1ccccc1Cl	inconclusive [inhibitor, single point]
CC(=O)Nc1ccc(S(=O)(=O)N2CCN(CCCOc3ccccc3Cl)CC2)cc1	inactive
CN(CC(=O)Nc1nc2ccccc2s1)S(=O)(=O)c1ccc(Br)cc1	inconclusive [inhibitor, partial curve, poor fit]

SMILES	Potency
O=C(Nc1ccc(N2CCN(C(=O)c3ccco3)CC2)cc1)c1ccccc1Br	inconclusive [inhibitor, partial curve]
Cc1cc2cc(CNC(=O)Cc3ccc([N+](=O)[O-])cc3)ccc2n1C	inactive
O=C(Nc1ccn(CCCN2CCC(N3CCOCC3)CC2)c(=O)n1)OCc1ccccc1	inactive
CCn1nc(C)c2c(-c3ccccc3)cc(=O)n(C(C)C(=O)NCc3cccc(OC)c3)c21 (centres undefined)	inconclusive [inhibitor, single point]
c1ccc(Nc2nc(-c3ccc4c(c3)OCO4)nc3ccccc23)cc1	inconclusive [inhibitor, single point]
CCC1CCCCN1CCCNC(=O)c1ccc2c(c1)N(Cc1ccccc1)C(=O)c1ccccc1S2(=O)=O (centres undefined)	inconclusive [inhibitor, single point]
CC(C)(C)C(=O)N(CCN(C(=O)C(C)(C)C)c1ccccc1)c1ccccc1	inconclusive [inhibitor, single point]
CCCNc1nc2c(c(=O)n(C)c(=O)n2C)n1Cc1ccc(F)cc1	active: 6.51 µM
CCOc1cccc(CC(=O)N2CCc3c([nH]c4ccccc34)C2c2ccccc2)c1OCC (centres undefined)	inconclusive [inhibitor, single point]
Cc1ccc(-c2nc3scc(CCNS(=O)(=O)c4ccc(F)c(C)c4)n3n2)cc1	inconclusive [inhibitor, partial curve]
COc1ccc(CN2CCN(C(=O)c3cccs3)CC2)cc1Br	inconclusive [inhibitor, single point]
CN(CCc1ccccc1)C(=O)c1cccc(NC(=O)Cc2cccc(NC(=O)C3CCCN(C(=O)CCc4ccccc4)C3)c2)c1 (centres undefined)	active: 14.6 µM
O=S(=O)(Nc1ccccc1N1CCCCC1)c1ccc(F)cc1	inconclusive [inhibitor, single point]
CNCCCOc1ccc(Cl)cc1C(C)(C)C	inconclusive [inhibitor, single point]
Cc1nc2ccccc2c(=O)n1NC(=O)/C=C/c1ccccc1	inactive
CCCCN(CCCNC(=O)c1ccc2nc(N3CCOCC3)sc2c1)Cc1ccccc1	inconclusive [inhibitor, single point]
CNC(=O)c1ccsc1NC(=O)c1ccc2c(c1)CCCC2	inconclusive [inhibitor, single point]
CCC1CN(C(=O)N2CCC(C(=O)NCCc3ccccc3C)CC2)c2ccccc2O1 (centres undefined)	inconclusive [inhibitor, single point]
Cc1ccc(C(OCCN(C)C)c2cccc(C(F)(F)F)c2)cc1 (centres undefined)	active: 23.1 µM
COc1cc(/C=C(\C#N)C(=O)Nc2cccc(C(=O)O)c2)ccc1OCc1ccc(Cl)cc1	inactive
O=C(COC(=O)CCNS(=O)(=O)c1ccccc1)NC1CC1	inactive
O=C(c1[nH]c2ccccc2c1Sc1ccc(Cl)cc1)N1CCCCC1	inconclusive [inhibitor, single point]
